# Reference: the supplement of paper PMC7826260
# Some of the results follow. Cleavage of a single-stranded DNA pool by Rep nickase domains was read by sequencing at 3 µM enzyme and 37 °C for 1 h; the strands have 90 letters, of which the middle is given. The score is log2 (uncut reads / reads without enzyme); uncut sequences lie near 0, cut ones below; no hit call is given. Counts are relative to all reads; where an enzyme cuts many sequences, the uncut ones exceed 0.
# Legend:
# Assay in all cases: uncleaved DNA left, log2 of reads against the no-enzyme library (log2 ratio); higher = less cleavage (more negative = more Rep cleavage of the k-mer); sequences stand for … in CTCGTCCG…ACCGGAGA
# [1] = tested on: T1, Rep nickase domain of Muscovy duck circovirus
# T1 sequence (residues 1-111 of Rep, tag left off): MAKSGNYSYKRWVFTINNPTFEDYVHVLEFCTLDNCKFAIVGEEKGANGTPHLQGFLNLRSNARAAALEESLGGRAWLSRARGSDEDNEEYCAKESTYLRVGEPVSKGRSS
# Protocol: (§1)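 A pool of 90-nt single-stranded DNAs with seven random bases just before the constant AC of the nick site (name = the seven bases) was cut by 3 µM recombinant His6-SUMO-tagged Rep nickase domain (300 nM DNA, 50 mM HEPES pH 8.0, 50 mM NaCl, 1 mM MnCl2, 1 h, 37 °C, three replicates). Uncut DNA was amplified and sequenced.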
# [2] = tested on: T2, Rep nickase domain of banana bunchy top virus
# T2 sequence (residues 1-94 of Rep, tag left off): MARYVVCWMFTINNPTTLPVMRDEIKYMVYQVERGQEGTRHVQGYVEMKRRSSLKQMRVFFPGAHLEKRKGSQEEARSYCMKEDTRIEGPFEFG
# Protocol: as §1
# [3] = tested on: T3, Rep nickase domain of cabbage leaf curl virus
# T3 sequence (residues 1-116 of Rep, tag left off): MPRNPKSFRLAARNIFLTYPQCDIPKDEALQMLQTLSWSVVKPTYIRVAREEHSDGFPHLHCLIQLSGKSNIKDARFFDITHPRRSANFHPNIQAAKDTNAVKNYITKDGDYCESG
# Protocol: as §1
# [4] = tested on: T4, Rep nickase domain of chickpea chlorotic dwarf virus
# T4 sequence (residues 1-124 of Rep, tag left off): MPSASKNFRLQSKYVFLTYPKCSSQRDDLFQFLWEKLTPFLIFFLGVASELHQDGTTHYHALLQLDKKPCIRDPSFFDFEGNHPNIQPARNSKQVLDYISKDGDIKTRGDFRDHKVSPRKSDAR
# Protocol: as §1
# [5] = tested on: T5, Rep nickase domain of faba bean necrotic yellows virus
# T5 sequence (residues 1-98 of Rep, tag left off): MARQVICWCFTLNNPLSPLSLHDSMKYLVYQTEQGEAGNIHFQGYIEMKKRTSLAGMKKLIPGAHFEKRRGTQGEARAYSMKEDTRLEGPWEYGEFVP
# Protocol: as §1
# [6] = tested on: T6, Rep nickase domain of maize striate mosaic virus
# T6 sequence (residues 1-117 of Rep, tag left off): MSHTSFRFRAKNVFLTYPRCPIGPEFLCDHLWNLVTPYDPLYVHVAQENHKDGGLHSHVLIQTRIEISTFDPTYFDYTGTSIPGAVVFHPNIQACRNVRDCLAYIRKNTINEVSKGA
# Protocol: as §1
# [7] = tested on: T7, Rep nickase domain of porcine circovirus 2
# T7 sequence (residues 2-116 of Rep, tag left off): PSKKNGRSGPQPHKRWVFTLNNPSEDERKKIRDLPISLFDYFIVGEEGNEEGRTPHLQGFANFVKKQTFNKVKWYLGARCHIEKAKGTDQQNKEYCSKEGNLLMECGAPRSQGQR
# Protocol: as §1
# [8] = tested on: T8, Rep nickase domain of tomato golden mosaic virus
# T8 sequence (residues 1-124 of Rep, tag left off): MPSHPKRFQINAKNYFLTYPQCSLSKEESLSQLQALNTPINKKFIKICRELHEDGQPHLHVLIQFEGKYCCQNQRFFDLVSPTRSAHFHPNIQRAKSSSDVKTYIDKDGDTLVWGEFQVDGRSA
# Protocol: as §1
# [9] = tested on: T9, Rep nickase domain of tomato yellow leaf curl virus
# T9 sequence (residues 1-136 of Rep, tag left off): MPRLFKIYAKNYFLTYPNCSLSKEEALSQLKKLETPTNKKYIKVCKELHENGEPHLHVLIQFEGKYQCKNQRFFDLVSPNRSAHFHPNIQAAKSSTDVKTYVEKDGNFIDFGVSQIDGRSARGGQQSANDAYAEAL
# Protocol: as §1
# [10] = tested on: T10, Rep nickase domain of wheat dwarf virus
# T10 sequence (residues 1-137 of Rep, tag left off): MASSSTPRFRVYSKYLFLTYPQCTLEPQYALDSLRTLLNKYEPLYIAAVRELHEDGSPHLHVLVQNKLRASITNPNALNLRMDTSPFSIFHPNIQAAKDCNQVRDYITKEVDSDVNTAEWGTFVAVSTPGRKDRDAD
# Protocol: as §1
Sequence,uncleaved DNA left (log2) [1],uncleaved DNA left (log2) [2],uncleaved DNA left (log2) [3],uncleaved DNA left (log2) [4],uncleaved DNA left (log2) [5],uncleaved DNA left (log2) [6],uncleaved DNA left (log2) [7],uncleaved DNA left (log2) [8],uncleaved DNA left (log2) [9],uncleaved DNA left (log2) [10]
CCGAAAC,0.107,-0.12,0.0799,-0.125,0.0427,-0.467,0.0664,0.0462,-0.0232,0.0186
AACATTA,-0.175,-0.0174,-0.299,-1.83,0.0255,-0.737,-0.169,-0.107,-0.000119,0.00163
GAGGCCG,0.116,0.122,-0.461,-0.112,0.122,-0.495,0.244,0.176,0.214,0.178
CCCTTAC,-0.0532,-0.245,-0.209,-2.1,-0.187,-0.809,-0.138,-0.278,-0.202,-0.209
CTTATGG,0.054,0.0566,0.0322,0.509,-0.0102,-0.407,0.178,-0.0322,-0.0186,0.102
TTGATAC,-0.229,-0.0639,-0.0513,-0.791,0.00735,-0.602,-0.3,-0.0131,-0.0232,-0.0846
TAGAGGG,0.117,0.0196,0.0793,0.113,0.108,-0.426,0.176,0.121,0.145,0.0406
ACTACCC,-0.0464,-0.159,-0.0592,-0.312,-0.0678,-0.274,-0.598,-0.0866,-0.0802,-0.0203
AAGCGGG,0.101,0.0576,-0.0918,0.223,-0.0892,-0.219,0.142,0.125,0.0186,-0.00936
TGAATAT,0.0923,0.242,0.298,-0.249,0.0466,0.0828,-0.0849,0.0402,0.167,0.178
TTAGGTC,0.0437,-0.00408,0.557,0.923,0.00177,1.39,-0.102,0.119,-0.0347,0.00458
ATTCAAG,0.0511,0.0114,-0.742,-0.3,0.087,-1.13,0.167,0.0454,0.0185,0.0297
AGATTCG,0.125,0.0714,-0.798,0.243,0.134,-0.941,0.251,0.074,0.207,0.0828
CATGGCC,0.0163,0.0488,-0.478,-0.291,-0.00188,-0.91,-0.0234,-0.091,0.101,-0.0846
TGTGTAA,0.0853,-0.047,0.17,0.384,0.0667,1.38,0.0694,0.114,0.00188,0.0224
GCTCCCG,-0.196,-0.0247,-0.846,-0.551,-0.208,-0.962,-0.15,-2.44e-05,-0.00567,-0.0455
CCCGGTG,0.198,-0.0614,-0.343,-0.413,0.222,-0.656,0.295,0.212,0.215,-0.0725
TGGGCTT,-0.0177,-0.00382,0.799,1.76,0.147,2.14,0.306,-0.0622,-0.0309,0.14
CCGAGAG,0.165,0.269,-0.0683,0.0278,0.228,-0.453,0.267,0.189,0.156,0.0906
GAGTAGA,0.291,0.104,0.274,0.477,0.0156,0.315,-1.9,0.061,0.193,0.122
GACGAGA,0.089,0.0933,0.87,1.49,0.019,1.85,0.152,0.12,-0.039,0.0785
CCGACAG,0.0282,0.0386,-0.151,0.284,0.0465,0.18,0.0983,0.032,-0.0525,-0.0557
TCGGAAT,-0.00475,0.0285,0.403,1.41,-0.149,1.58,0.173,0.174,-0.0192,0.038
TCTTAAC,0.104,0.0953,-0.00336,-1.46,0.156,-0.313,0.113,0.103,0.143,0.0937
TCCAAGC,-0.0889,-0.0434,0.239,0.768,-0.0322,0.523,0.237,0.0151,-0.0659,-0.0635
CCCTGCA,-0.0162,0.0174,-0.58,-0.835,-0.0695,-0.954,-0.213,-0.00071,0.12,-0.114
AAATATA,-0.564,0.0927,-1.17,-2.94,0.105,-0.706,-1.6,-0.0442,0.108,-0.284
CGTACCG,0.00423,-0.032,-0.724,-0.808,0.0291,-1.01,0.0993,-0.0128,0.00754,-0.0886
GGACACC,0.104,0.0264,0.757,1.8,-0.0577,2.19,0.231,0.0499,0.0219,0.211
